Among all 330,000 compounds or so, about 4,200 (1.3%) were called active. Inconclusive results, whose numbers are uncertain, are shown with a selection of clear calls. Calls come from the whole dose curve; as a rule, active = well fitted activation curve with a large enough effect; inconclusive = small, poorly fitted or top-dose-only effect; inactive = no such curve, though single readings can be large or run the other way. Potencies of inconclusive entries are doubtful fits and often do not repeat.
Experiment: qHTS screen for small molecules that induce genotoxicity in human embryonic kidney (HEK293T) cells expressing luciferase-tagged ELG1; note: nearly all actives have a fitted effect of over 60% in size; for activity change, positive = activation: % of control where 0% means no effect
Details: HEK293T ELG1-luciferase reporter, luminescence, 16 h; series mostly up to 46 µM; activity change, positive = activation: at the top concentration
In short: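 ELG1-luciferase HEK293T cells, 2,000/well; compound pinned in; 16 hr, 37 °C, 5% CO2; ONE-Glo, 30 min RT; luminescence on CCD imager.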
With `COc1ccc(-n2nnnc2-c2ccccc2)cc1` the Potency was inconclusive: 16.4 µM [activator, single point].
In the case of `Cc1cc(=O)[nH]c(SC(C)C(=O)Nc2cccc3ccccc23)n1` (configuration not stated), the “activity change, positive = activation” value is reported as inactive: -0.422%.
For `Cc1csc(NC(=O)c2sccc2C)n1`, the Potency was inconclusive: 8.2 µM [activator, partial curve].
For `Cc1ccc(CNC(=O)C(=O)NCC2CCCN2S(=O)(=O)c2cccs2)cc1` (configuration not stated), the “activity change, positive = activation” value was inactive: 11.5%.
For `C/C(=N\NS(=O)(=O)c1ccc([N+](=O)[O-])cc1)c1ccc(NC(=O)c2ccco2)cc1`, the Potency was inconclusive: 9.2 µM [activator, partial curve, poor fit].
With `O=C(COc1ccccc1N1C(=O)c2ccccc2C1=O)c1ccc(Cl)cc1` the Potency was active: 18.4 µM.
For `C/C(CC(=O)Nc1ccccn1)=N\NC(=O)c1ccccc1O`, the Potency was active: 16.4 µM.
With `CCOC(=O)c1c(C)[nH]c(C2=NNC(=NC3CC3)SC2)c1C` the Potency was active: 0.58 µM.
For `CCc1noc(C)c1C(=O)Nc1nc2c(C)cc(C)cc2s1`, the “activity change, positive = activation” value was inactive: 22.3%.
With `CC(/C=N/NC(=O)CSc1n[nH]c(=O)[nH]c1=O)=C\c1ccccc1` the “activity change, positive = activation” value was inactive: -1.68%.
For `Cc1cc(NC(=O)CO/N=C/c2ccc3c(c2)OCO3)ccc1Br`, the Potency was inconclusive: 32.6 µM [activator, partial curve, poor fit].
For `Cc1cc(C(=O)COC(=O)c2cc(O)c3ccccc3c2O)c(C)n1CC1CCCO1` (configuration not stated), the “activity change, positive = activation” value was inactive: 1.56%.
For `Cc1ccc(-c2cc(-c3ccccc3)no2)cc1`, the Potency was inconclusive: 0.92 µM [activator, partial curve].
For `CCOc1ccc(S(=O)(=O)N2CCN(Cc3ccc4c(c3)OCO4)CC2)cc1C`, the “activity change, positive = activation” value was inactive: -2.89%.
With `C[C@@H]1COC(=O)[C@H](Cc2ccc(F)cc2)CC/C=C\C[C@@H](CC(=O)NCCO)C(=O)N1` the “activity change, positive = activation” value was inactive: 1.02%.
In the case of `COc1cc(/C=N/NC(N)=O)ccc1OCC(=O)Nc1cc(C)c(C)cc1Br`, the Potency is reported as inconclusive: 20.6 µM [activator, single point].
With `c1csc(-c2nnc(-c3ccc(N4CCOCC4)cc3)o2)c1` the Potency was active: 1.3 µM.
In the case of `CN(C)c1ccc(C(=O)c2ccc(N(C)C)c3ccccc23)cc1`, the Potency is reported as inconclusive: 6.51 µM [activator, partial curve].
With `O=C(O)C1Oc2cc3ccccc3cc2O1` the “activity change, positive = activation” value was inactive: -3.14%.
For `CCN(CC)c1ccc(C=Nc2ccc(C#N)cc2)c(O)c1`, the “activity change, positive = activation” value was inactive: 9.44%.
For `Cc1ccc(NC(=O)CCc2c(C)nn(-c3ccc(N4CCOCC4)nn3)c2C)cc1C`, the “activity change, positive = activation” value was inactive: 5.98%.
With `Cn1ccc(C(=O)Nc2sc3c(c2C(N)=O)CCCCC3)n1` the Potency was active: 0.461 µM.
For `Cc1ccc(NC(=O)Cn2c(O)c(N=NC(N)=S)c3ccccc32)cc1`, the Potency was inconclusive: 23.1 µM [activator, partial curve, poor fit].
In the case of `COc1ccc(C(=O)Nc2nnc(-c3ccco3)s2)cc1`, the Potency is reported as inconclusive: 0.731 µM [activator, partial curve].
For `Cc1ccnc(NC(=O)CCc2c[nH]c3ccccc23)c1`, the Potency was inconclusive: 8.2 µM [activator, partial curve, poor fit].
With `Cc1ccc(-c2nc(CSc3nc4ccccc4c(=O)n3C)cs2)cc1` the Potency was inconclusive: 32.6 µM [activator, partial curve, poor fit].
For `Nc1ccc(Oc2cc(N)cc(Oc3ccccc3)c2)cc1`, the Potency was inconclusive: 14.6 µM [activator, partial curve].
For `CCc1nnc(SCC(=O)Nc2ccccc2Cl)nc1CC`, the “activity change, positive = activation” value was inactive: -6.7%.
With `O=C(OCc1nc2ccccc2s1)c1cccc(S(=O)(=O)N2CCOCC2)c1` the Potency was inconclusive: 7.31 µM [activator, partial curve].
For `c1ccc(Cn2nnc3c(N4CCCCCC4)ncnc32)cc1`, the Potency was inconclusive: 1.46 µM [activator, partial curve].
With `Cc1cc(C)c(C)c(S(=O)(=O)Nc2ccc3cn[nH]c3c2)c1C` the “activity change, positive = activation” value was inactive: -1.08%.
In the case of `Cc1ccc(C2CCN(C(=O)Nc3ccccc3)C2)cc1` (configuration not stated), the Potency is reported as inconclusive: 13 µM [activator, partial curve, poor fit].
With `Cc1ccc(OCC(=O)NCc2ccccn2)c(Br)c1` the Potency was inconclusive: 18.4 µM [activator, partial curve].
With `Cc1nc(N2CCCCC2C)c2c(C)c(C(=O)Nc3cccc(C(F)(F)F)c3)sc2n1` (configuration not stated) the “activity change, positive = activation” value was inactive: -4.35%.
For `CCSc1nc2ccccc2n1C(=O)/C=C/c1ccc(OC)c(OC)c1`, the Potency was inconclusive: 7.31 µM [activator, partial curve, poor fit].
In the case of `CCOC(=O)c1sc(NC(=O)c2ccc(OC)cc2)nc1C`, the Potency is reported as inconclusive: 20.6 µM [activator, partial curve, poor fit].
In the case of `Cc1cccc(-c2nc3cc(NC(=O)C4CCCO4)ccc3o2)c1` (configuration not stated), the Potency is reported as active: 1.16 µM.
In the case of `CCC1(c2ccccc2)NC(=O)N(CC(=O)Nc2ccc(S(N)(=O)=O)cc2)C1=O` (configuration not stated), the “activity change, positive = activation” value is reported as inactive: 0.603%.
With `CCOC(=O)c1cc(-c2ccc(N)cc2)sc1N` the Potency was active: 7.31 µM.
For `O=C(NC1=NCCS1)c1ccc(Cl)cc1`, the Potency was active: 10.3 µM.
With `COc1ccc(/C=C/c2ccc3cccc(O)c3n2)cc1Br` the Potency was inconclusive: 13 µM [activator, partial curve, poor fit].
With `c1ccc(COc2ccc(-c3sc(Nc4ccccc4)n[n+]3-c3ccccc3)cc2)cc1` the Potency was inconclusive: 32.6 µM [activator, partial curve, poor fit].
In the case of `CC(=NNC(=O)c1cccs1)c1ccc2c(c1)OCCO2`, the Potency is reported as active: 16.4 µM.
For `CCc1cccc2c(C(=O)CSc3nnc(C4CC4)o3)c[nH]c12`, the “activity change, positive = activation” value was inactive: 0.214%.
In the case of `CC(C)(C)c1ccc(C(=O)Nc2nnc(SCC(=O)NCC3CCCO3)s2)cc1` (configuration not stated), the Potency is reported as inconclusive: 0.291 µM [activator, full curve, poor fit].
With `C=CCn1c(C)cc(C(=O)COc2ncnc3sccc23)c1C` the Potency was active: 2.59 µM.
In the case of `Cc1cccc(C(=O)Nc2cccc(Br)c2)c1[N+](=O)[O-]`, the “activity change, positive = activation” value is reported as inactive: -0.419%.
In the case of `CCn1c(=O)c(C(=O)NNC(=O)c2ccccc2F)c(O)c2ccccc21`, the “activity change, positive = activation” value is reported as inactive: -2.32%.
With `COc1ccccc1-c1ccc2nnc(SC)n2n1` the Potency was inconclusive: 18.3 µM [activator, partial curve, poor fit].
For `CN(C)c1ccc(-c2n(C)c3ccccc3[n+]2C)cc1`, the Potency was inconclusive: 5.01 µM [activator, single point].
With `CCc1nnc(NS(=O)(=O)c2ccc(N/C=C\C(=O)c3cccc(OC)c3)cc2)s1` the “activity change, positive = activation” value was inactive: 9.82%.
With `O=C(Nc1ccc2c(c1)OCO2)c1cc(-c2ccc(O)cc2)on1` the Potency was inconclusive: 29.1 µM [activator, single point].
In the case of `CCC(C)c1ccc(NC(=O)COC(=O)C2=COCCO2)cc1` (configuration not stated), the Potency is reported as inconclusive: 20.6 µM [activator, single point].
With `COc1ccc(C(C)NC(=O)c2cccc([N+](=O)[O-])c2)cc1OC` (configuration not stated) the “activity change, positive = activation” value was inactive: 1.13%.
For `Cc1nnc(SCC(=O)c2cc(C)n(-c3ccc4c(c3)OCO4)c2C)s1`, the Potency was inconclusive: 6.51 µM [activator, single point].
For `CCOc1c2ccoc2nc2c(OC)c(OC)ccc12`, the Potency was inconclusive: 20.6 µM [activator, partial curve, poor fit].
In the case of `Cc1ccc2oc(C(=O)N(Cc3ccncc3)CC3CCCO3)c(C)c2c1` (configuration not stated), the Potency is reported as inconclusive: 14.6 µM [activator, single point].
In the case of `O=C1CSC(c2c(F)cccc2Cl)N1c1cccc(F)c1` (configuration not stated), the “activity change, positive = activation” value is reported as inactive: -4.32%.
In the case of `Cc1ccccc1C(=O)Nc1ccccc1`, the Potency is reported as inconclusive: 11.2 µM [activator, partial curve].
For `CCOC(=O)c1ccc(NC(=O)c2n[nH]c(=O)c3ccccc23)cc1`, the Potency was inconclusive: 9.2 µM [activator, partial curve].
With `Cc1nc2ccc(NC(=O)c3ccco3)cc2s1` the Potency was inconclusive: 20.6 µM [activator, single point].
For `O=S(=O)(c1cc(F)ccc1F)N1CCC2(CC1)OCCO2`, the Potency was active: 9.2 µM.
For `Oc1cc2c(cc1O)[C@H]1c3ccc(O)c(O)c3OC[C@@]1(O)C2`, the “activity change, positive = activation” value was inactive: 1.99%.
For `COc1cccc(OC)c1NC(=O)c1nc2c(nnn2Cc2ccccc2Cl)c(=O)[nH]1`, the “activity change, positive = activation” value was inactive: 10.5%.
With `O=C(NC(=S)Nc1ccc2c(c1)OCCO2)c1ccccc1F` the Potency was inconclusive: 29.1 µM [activator, single point].
For `CC(=O)N1CCN(C(=O)CCC(=O)O)CC1`, the “activity change, positive = activation” value was inactive: 1.18%.
For `O=c1c2ccccc2nnn1COc1ccc(Cl)cc1Br`, the Potency was inconclusive: 10.3 µM [activator, partial curve, poor fit].
In the case of `CCOc1ccc(/C(C)=N/NC(=O)c2nnn(-c3nonc3N)c2-c2cccs2)cc1`, the Potency is reported as inconclusive: 32.6 µM [activator, partial curve, poor fit].
For `COc1ccc(C(=O)NC(=O)Nc2ncccc2C)cc1`, the Potency was inconclusive: 11.2 µM [activator, partial curve, poor fit].
In the case of `Cc1nc2cc(Cl)c(Cl)cc2nc1C`, the Potency is reported as inconclusive: 29.1 µM [activator, single point].
In the case of `O=C(Nc1ccc(-c2nc3ccccc3s2)c(O)c1)C1=COCCO1`, the Potency is reported as active: 16.4 µM.
In the case of `COc1ccc(-c2cccc(NS(=O)(=O)c3ccccc3[N+](=O)[O-])c2)nn1`, the “activity change, positive = activation” value is reported as inactive: 2.8%.
With `CN(C)C=NC(=O)c1ccc([N+](=O)[O-])c(CS(=O)(=O)c2ccc(Cl)cc2)c1` the “activity change, positive = activation” value was inactive: -5.11%.
For `O=C(Nc1cccc(O)c1)c1ccc(Br)cc1`, the Potency was active: 5.8 µM.
For `CCOC(=O)CC(=O)CSc1nc2c(cc1C#N)CCCCC2`, the Potency was active: 7.08 µM.
With `Cc1nonc1C1CCCN1C(=O)c1cc(COc2ccc(F)cc2F)on1` (configuration not stated) the Potency was inconclusive: 14.6 µM [activator, partial curve].
With `COc1ccc2c(c1OC)C(=O)OC2Nc1nc(-c2cc3cc(Br)ccc3oc2=O)cs1` (configuration not stated) the Potency was inconclusive: 2.31 µM [activator, full curve, poor fit].

Source: PubChem BioAssay AID504466 (National Center for Advancing Translational Sciences (NCATS), 2011)
Potency is the fitted concentration of half-maximal effect; tags give direction and shape of the fitted curve.
